From article PMC12136788
Some of the results follow.

T1: UNK ZnF1-3 (human, UniProt Q9C0B0 31-174)
T1 sequence: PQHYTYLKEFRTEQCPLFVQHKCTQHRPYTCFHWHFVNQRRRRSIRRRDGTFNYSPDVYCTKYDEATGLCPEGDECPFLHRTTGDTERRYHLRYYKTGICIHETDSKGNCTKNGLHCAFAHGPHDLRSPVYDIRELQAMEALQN

B1: chr12:88580095:88580096:-_ENSMUSG00000021038_ENSMUST00000072744|mus_mus|FALSE|FALSE (ssRNA)
RNA: GGGAGUUCUACAGUCCGACGAUCACGUGCUGAAGCAGAUGGCUCACCACCUGGACAGUGUGCAGGUGUCAGAGGGACCCUAUAUCCCUCACACGUCCCUACACAAAGUUGACAGGGACAGUGCCGUGACAGCAGGUAGAUACUCAACAGAGGAUUGAGCAUCA
B2: chr2:237995794:237995795:+_ENSG00000198612_ENST00000392008|hu_hu|motif|central (ssRNA)
RNA: GGGAGUUCUACAGUCCGACGAUCGUAUUCUUUUCCAAAGAUAUCUUGCAUUAUUCAUGUCAUUAUGGAGCAAAUAUAAAGCGGGAAGCUGACCAUACACUGGGGGUGUAGCAAUUCCUCCAGGGGCUAUUAUAAGAAACAAAUCAACAGAGGAUUGAGCAUCA
B3: chr18:77733610:77733611:-_ENSG00000141759_ENST00000592957|hu_mus|motif|central (ssRNA)
RNA: GGGAGUUCUACAGUCCGACGAUCCUCAUCUCACGGAUCCUCCAGCUCUACAGCAAUGUCGGGCUGCAGGGCCUUUCCAGAGGCGGCGAGAGCAGAGUAUUUCUAUGUGGAAGAGGCUCUCAGUGUCCUUUGCACAGCCUGAGGCAACAGAGGAUUGAGCAUCA
B4: chr17:62495851:62495852:-_ENSG00000108654_ENST00000581693|hu_hu|FALSE|FALSE (ssRNA)
RNA: GGGAGUUCUACAGUCCGACGAUCUCACUGUACAUUUACUUUUGUGAAAACACUGCCUGCAUUUUCUAGUACAAAAAAAACCUAAAAAUUGUUUCAGGAAUGUAGAGAAAUAUCCAACUUAAAUAGCGAAAAAGUGCACCAUAACAACAGAGGAUUGAGCAUCA
B5: 52781405_52782389_3119_CDS_ENSMUSG00000035726_ENSMUST00000046709|mouse|control|control (ssRNA)
RNA: GGGAGUUCUACAGUCCGACGAUCGCCACGGCCUGAACUAUGUACAGAUGCCUUCCUCUUCCGGCUCAUACUUCGGCUCUGUUCUUCUUCCUCCUCAUAACGGCUUUCCCGGUCCGCUUUUCGUGCUUCUUCUUCUAGCUCAUCCAACAGAGGAUUGAGCAUCA
B6: chr7:44664009:44664010:+_ENSG00000105953_ENST00000222673|hu_mus|FALSE|FALSE (ssRNA)
RNA: GGGAGUUCUACAGUCCGACGAUCAGAAUAGCACCGAAUCUGUUGAAACGUCCUAAUUGCUGCUGGUUUGUUUUGUGAAAAUGUCUUAACAGUCUGGGAGGCUGUCAAUGGCCUUAACUUAGCAGCACAAGUCCUUAAAUGAAACAACAGAGGAUUGAGCAUCA
B7: chr2:179515052:179515053:+_ENSMUSG00000000305_ENSMUST00000000314|mus_hu|mus_mus_mus_hu_False|78_88 (ssRNA)
RNA: GGGAGUUCUACAGUCCGACGAUCGCUGUCCCAUGCAGUCACCGUGAAGGCCACCUGCUCUGAGGGGACCUGCAGCUCCCGGGUGGCGAAGACUGUCCCAUCUGCCCCAACUUUGAAGUCCAUGCUGUUGGUCUCAUAUUGUGUCAACAGAGGAUUGAGCAUCA
B8: chr7:75932113:75932114:+_ENSG00000106211_ENST00000248553|hu_hu|hu_hu_hu_mus_False|88_108 (ssRNA)
RNA: GGGAGUUCUACAGUCCGACGAUCCUGCGACCACUCCUCGGGCAACCGGGGCAGCCCGAAAGCUUGAUCGAAGAGGCGGCUGUGUGCAGGGUACCAGUCCCGGAAUGGUUCCCAGCUCGGGCUCCGCAGCAGCGAGAAGGGCACCAACAGAGGAUUGAGCAUCA
B9: chr7:140404665:140404666:+_ENSG00000090266_ENST00000247866|hu_hu|hu_hu_hu_mus_False|8_78 (ssRNA)
RNA: GGGAGUUCUACAGUCCGACGAUCUGCUCCUACUCGUCCAGAGAGUUUACAGUGUCAGUCUUCAUCAUCAGGAGGGAUUCCCAGUUCUUCAUCUGUCCACUGUGAAGGAUCUGGAUAUGAAAAGUGACCCAGCACCUCAUCCGACAACAGAGGAUUGAGCAUCA
B10: chr6:40197388:40197389:+_ENSMUSG00000057716_ENSMUST00000061740|mus_mus|mus_mus_mus_hu_False|38_98 (ssRNA)
RNA: GGGAGUUCUACAGUCCGACGAUCGAGACACUGGGGUGGAUGGCACCCACCUCUGUUUGGGUGCUAGCCACUAAGACUGUUAUUUUGGGAUUCAUGGCCUUGAAGAUCAAGAGGGAAAGGAAGAGGAUGGAAAGAGUCAAGAGUCAACAGAGGAUUGAGCAUCA
B11: chr6:106732989:106732990:-_ENSMUSG00000005362_ENSMUST00000049675|mus_hu|motif|central (ssRNA)
RNA: GGGAGUUCUACAGUCCGACGAUCACUGCCAAUUUUAAGGAGCUGAAUUCUCAAUACAUCAUCAAUAGGAAGACAAGCAGCGGCUCUGUAAGAAAAAUCUAUUGGAUUUGAAGGAAGAGAAUCAUCUUUUAGAUUUUCAUCCCACAACAGAGGAUUGAGCAUCA
B12: 16573988_16574108_998_CDS_ENSMUSG00000070808_ENSMUST00000094821|mouse|control|control (ssRNA)
RNA: GGGAGUUCUACAGUCCGACGAUCGGCUGCUGCAGUGGCAGCCCCUGUCCCGGCAAACACCGAGUUCCCGUUGAGUGUGGUGGUCACUGCGGCUGGAAGAUUUUUCUGGAUGACCAGGCCGGCUCCCUGGGGGGACACGCCGGCCAACAGAGGAUUGAGCAUCA
B13: 71200049_71200440_1770_CDS_ENSMUSG00000031386_ENSMUST00000033761|mouse|control|control (ssRNA)
RNA: GGGAGUUCUACAGUCCGACGAUCAGGACCAGUCACUUUGAGAACAGCAGGGACACCUUGAGUCCUGGCUGCAGUGGGCACAGAAAUGGAGCUGCCUGGCACUGUCGGCAAGACCUGGAUGGUGGUUGUGCUUGGGGGUGCAGUCAACAGAGGAUUGAGCAUCA
B14: chr1:173703207:173703208:+_ENSG00000076321_ENST00000209884|hu_hu|FALSE|FALSE (ssRNA)
RNA: GGGAGUUCUACAGUCCGACGAUCAGCAGCUGGCAGAAGAGUCUGAACAUUGCCCUCUUCUACUGUUAUCUGGGAGGUAUACGCAAAGUCAAUCAGUAAUUCCAUAGCCCUCUCGUCAAUGUCUCGGAUCACUACUUCUGUCUGCAACAGAGGAUUGAGCAUCA
B15: chrX:71549762:71549763:+_ENSMUSG00000019087_ENSMUST00000019231|mus_mus|mus_mus_mus_hu_False|58_68 (ssRNA)
RNA: GGGAGUUCUACAGUCCGACGAUCAAACCCGUGUACUUCUUAUUGUUAGCACAACAUCACCAGAAAAAAAACAUAACAGCUAAGCUGGACAGACAGUUAAGUAGUACUUCCACACUCCCAAACUCAGGGAGCCCUAUAACCUUACAACAGAGGAUUGAGCAUCA
B16: 89385523_89385643_863_CDS_ENSMUSG00000031652_ENSMUST00000034074|mouse|control|control (ssRNA)
RNA: GGGAGUUCUACAGUCCGACGAUCUUCAUCUCUAGCACUACUCGGUCCUGUGGCAGCACUCUGUGUGUACUCUGGUGGCCGUACAUCUCCAACAGUAAUGACAUCAUCAUCUGUUUCAAACAGACUCUCUUCCCCUUGUGUGAGCAACAGAGGAUUGAGCAUCA
B17: chr2:207024631:207024632:+_ENSG00000114942_ENST00000392222|hu_mus|FALSE|FALSE (ssRNA)
RNA: GGGAGUUCUACAGUCCGACGAUCGGGGAGCUGUGCAAAAGCGGAGGACGAGAGCGCCGGGAGGCCGCGGCCAGCGCUGAGGGAAAAAAAGGACCCAGAGCGUCCGGAAAACUCCUUAUAUAGAGACGGAGGCGUUUCCCUCCGCAACAGAGGAUUGAGCAUCA
B18: chr2:30816663:30816664:-_ENSMUSG00000026849_ENSMUST00000028200|mus_hu|FALSE|FALSE (ssRNA)
RNA: GGGAGUUCUACAGUCCGACGAUCCCUCACACACAUUUUCACAUGUCUGUACUCCAAAGGCAGGAAGGGGAUAAAGUAAUCAAUGAGGUUUUUGUCGAUCAGUCCACUGUGCCACAGGCCACUGUGUUUAUUAUUGAAGACUCCCAACAGAGGAUUGAGCAUCA
B19: chr3:176767854:176767855:-_ENSG00000177565_ENST00000430069|hu_hu|hu_hu_hu_mus_False|98_108 (ssRNA)
RNA: GGGAGUUCUACAGUCCGACGAUCGACAUCCUUGUUGCUUGGAACAUCCUGCCCUCCUUCCCGUAUGCAGUGUCUAAGCACGAGCUGCGUAGGGCCACUCGUGCUGUUCUCACUGAGGUUCCAGAUUCUUGCCGUGGAGUCUCCCAACAGAGGAUUGAGCAUCA
B20: 128987363_128987794_1838_CDS_ENSG00000181789_ENST00000314797|human|control|control (ssRNA)
RNA: GGGAGUUCUACAGUCCGACGAUCUGCUGUGAUGGGGGUACUUUCUGUUCUCUGCUCUGCCAUGGGCGCCGUGGCCAGGGGCACAGACUUGAGGUCAAAAGGUUUUUCUGAUGGUUCUAGAGUGUACUGCUGCAGAGCCCUCUCCAACAGAGGAUUGAGCAUCA
B21: chr11:77336104:77336105:-_ENSG00000074201_ENST00000525064|hu_mus|hu_hu_hu_mus_False|28_108 (ssRNA)
RNA: GGGAGUUCUACAGUCCGACGAUCCUCGCACAUUGCAGUGAACAUCGCCUCCAAUGCUGACUUAUCACUGGGCACAAAUCGAAAUUCAGAAAUGGGUUCAACAUCAUCAUCACUGUCCUCAUCUUCAUCAGAGAGAGGUUCUUUCAACAGAGGAUUGAGCAUCA
B22: chr8:117878989:117878990:-_ENSG00000164754_ENST00000297338|hu_hu|hu_hu_hu_mus_True|8_98 (ssRNA)
RNA: GGGAGUUCUACAGUCCGACGAUCCCAGAGGCCCUCGUUUACUGAGAACAAAAUGUGCGUAGAACAUUUUUCUUAUUUGCUAUGAAAUAAGAAGAAACCUGGAUCUCGGCGGGGAGCCGGGAGGGGUUGGGUGGCCCGGGAGGGCAACAGAGGAUUGAGCAUCA

These binders were tested against T1, UNK ZnF1-3 (assay: nsRBNS (natural sequence RNA bind-n-seq); RBNS binding buffer (assumed for nsRBNS): 25 mM Tris pH 7.5, 150 mM KCl, 3 mM MgCl2, 0.01% Triton X-100, 500 ug/ml BSA, 20 U/ml SUPERase-In, 4 C; UNK is unkempt and MSI1 is Musashi-1; names of the RNAs are library labels; protein concentration not given here; high values mean tight binding).

Binder | binding signal [enrichment R]
B1 | 0.592
B2 | 1.4
B3 | 0.838
B4 | 1.07
B5 | 0.467
B6 | 1.1
B7 | 0.859
B8 | 1.39
B9 | 1.35
B10 | 1.45
B11 | 1.28
B12 | 0.863
B13 | 0.999
B14 | 1.27
B15 | 1.4
B16 | 0.677
B17 | 2.12
B18 | 1.06
B19 | 0.553
B20 | 0.853
B21 | 1.08
B22 | 1.59
